From PubChem BioAssay AID1466 (National Center for Advancing Translational Sciences (NCATS), 2008)
Hit rate of the full screen: of about 200,000 compounds, about 10 (0.005%) were called active. The inconclusive results got no clear call from the source; some entries with a clear call stand among them for comparison. Calls follow the shape of the dose curve; as a rule, active = well fitted inhibition curve with a large enough effect; inconclusive = small, poorly fitted or top-dose-only effect, or effect the other way, or another doubt; inactive = no such curve, though single readings can be large or run the other way. Potencies beside an inconclusive call are fits to weak or partial responses and may not hold up.

target: Lysosomal alpha-glucosidase (Homo sapiens) (UniProt P10253); experiment: qHTS Assay for Inhibitors of Human alpha-Glucosidase as a Potential Chaperone Treatment of Pompe Disease; conditions: purified human GAA, 4-MU-alpha-glucoside fluorescence; activity change, negative = inhibition: at 76.9 µM (top of the series) unless noted;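 as to activity change, negative = inhibition: plate controls were uninhibited enzyme wells for no effect and no-enzyme background for full effect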
How it was run: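 AC50 values come from Hill fits of compound titrations (up to 77 uM) against 4 nM human enzyme. Substrate 4-methylumbelliferyl-alpha-D-pyranoside at 400 uM, pH 5.0 citrate buffer, 20 min room temperature; fluorescence Ex 365/Em 440 after alkaline stop.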
Potency is read from the fitted curve at half-maximal effect; tags tell the direction and shape of the fitted curve.

SMILES	Potency	activity change, negative = inhibition
CC1(C)OC(=O)C(=NNc2ccccc2)C(=O)O1	inactive	
O=C(CN1CCC(Cc2ccccc2)CC1)NC(=O)NC1CCCCC1	inconclusive: 7.08 µM [activator, single point]	
C=CCn1c(O)c(N=NC(=S)Nc2ccc(OC)c(Cl)c2)c2ccccc21		inconclusive: -15% [inhibitor]
O=C(CSc1nnc(-c2ccncc2)n1-c1ccccc1Cl)Nc1ccc(C(=O)O)cc1	inconclusive: 56.2 µM [inhibitor, single point]	
Cc1cc(Nc2ccccc2)n(CCOC(=O)COc2ccccc2)n1	inconclusive: 50.1 µM [inhibitor, single point]	
CC1=NN(c2ccccc2)C(=O)/C1=C\C=C1/N(C)c2ccccc2C1(C)C	inconclusive: 56.2 µM [inhibitor, single point]	
O=C(O)COn1c(-c2ccccc2)nc2ccc(Cl)cc21		inconclusive: 4.41% [activator]
CCOC(=O)C1=NNC2(c3ccc(C)cc3)C(=O)N(c3ccccc3)C(=O)C12 (stereo not given)	inconclusive: 50.1 µM [inhibitor, single point]	
CC(OC(=O)c1ccccc1Oc1ccccc1)C(=O)NC1CC1 (stereo not given)		inconclusive: -17.3% [inhibitor]
CC(C)NC(=O)C1CCN(C2CCN(Cc3nc(C(C)C)cs3)CC2)CC1	inconclusive: 6.31 µM [inhibitor, partial curve]	
CCCCN(C)C(=O)c1coc(=O)c2ccccc12	inconclusive: 56.2 µM [inhibitor, single point]	
CN(C)c1oc(-c2cccs2)nc1C#N	inconclusive: 39.8 µM [activator, partial curve]	
Cc1cccc(Oc2nc(-c3ccccc3)cc(C)c2S(C)(=O)=O)c1C	inconclusive: 4.47 µM [inhibitor, single point]	
CN(C(=O)COC(=O)c1cc(-c2ccc(Cl)s2)nc2ccccc12)C1CCS(=O)(=O)C1 (stereo not given)	inconclusive: 50.1 µM [activator, partial curve]	
CC(C)CC(C(=O)Oc1ccc2c3c(c(=O)oc2c1)CCC3)N1C(=O)c2ccccc2C1=O (stereo not given)		inconclusive: 47.2% [activator]
O=c1cc(-c2ccccc2)[nH]n1-c1nc2ccccc2[nH]1	inconclusive: 15.8 µM [inhibitor, partial curve]	
Brc1cccc(OCCN2CCCCC2)c1	inconclusive: 2.82 µM [inhibitor, full curve]	
COC(=O)c1cc(OC)c(OC)cc1NC(=O)c1ccoc1C	inconclusive: 0.282 µM [activator, full curve, poor fit]	
Cc1ccc(N/C(=C\C(=O)c2ccccc2)C(=O)O)cc1	inconclusive: 25.1 µM [inhibitor, partial curve, poor fit]	
CCC(C(=O)OCC(=O)Nc1cc(C)ccc1OC)c1ccccc1 (stereo not given)	inconclusive: 3.98 µM [inhibitor, full curve, poor fit]	
CCCCN(CCCNC(=O)C1CCN(S(=O)(=O)N2CCOCC2)CC1)Cc1ccccc1		inconclusive: -15.2% [inhibitor]
Cn1c(=O)c2c(nc(NCc3cccnc3)n2Cc2cccc(C(F)(F)F)c2)n(C)c1=O	inconclusive: 7.08 µM [inhibitor, partial curve]	

SMILES	Potency	activity change, negative = inhibition
Cc1ccc(C(=O)Nc2ccc(NC(=O)c3cccs3)cc2)cc1[N+](=O)[O-]		inconclusive: 12.7% [activator]
C=CCNc1cc(C)oc(=O)c1C(=O)CC	inconclusive: 5.01 µM [inhibitor, single point]	
Cc1ccc(S(=O)(=O)N2CCCOC2CNC(=O)C(=O)NC2CCCCC2)cc1 (stereo not given)	inconclusive: 0.158 µM [activator, full curve, poor fit]	
N#CC1=C(N)OC2=C(C(=O)CCC2)C1c1ccccc1 (stereo not given)	inconclusive: 0.158 µM [inhibitor, full curve, poor fit]	
Cc1cc(C)c(NC(=O)CN(C2CCCCC2)C2CCCCC2)c(C)c1	inconclusive: 31.6 µM [inhibitor, single point]	
CC1CCc2c(sc(NC(=O)Cn3nc(C(F)(F)F)c4c3CCCCC4)c2C#N)C1 (stereo not given)	inconclusive: 6.31 µM [inhibitor, single point]	
Cc1nnc(N/N=C/c2cc([N+](=O)[O-])c(N3CCC(C)CC3)cc2N2CCC(C)CC2)n1N	inconclusive: 31.6 µM [inhibitor, single point]	
CC(C)CC(OC(=O)c1cccs1)C(=O)NCc1ccco1 (stereo not given)	inconclusive: 15.8 µM [inhibitor, partial curve]	
COC(=O)c1sc(N)c(C(=O)OC)c1COC(=O)[C@@H](NS(=O)(=O)c1cccc(Cl)c1)C(C)C		inconclusive: -15.8% [inhibitor]
Cc1ccc(S(=O)(=O)NC(=O)Nc2c(C)n(C)n(-c3ccccc3)c2=O)cc1	inactive	
Cc1nc(Nc2ccc(O)cc2)c2c3c(sc2n1)CCCC3	inactive	
N/C(=N\OC(=O)c1cc(-c2ccccc2)nc2ccccc12)c1ccncc1		inconclusive: -16.9% [inhibitor]
CCC1=NN2C(=N)/C(=C\c3cccn3-c3c(C)cccc3C)C(=O)N=C2S1		inconclusive: -15% [inhibitor]
COc1ccc(-c2cc(C(F)(F)F)n3nc(C(=O)N4CCOCC4)c(Cl)c3n2)cc1	inconclusive: 1.26 µM [inhibitor, partial curve, poor fit]	
C=CCn1c(SCC(=O)c2ccc(OC)cc2)nnc1-c1ccc2c(c1)OCO2	inconclusive: 56.2 µM [inhibitor, single point]	
c1ccc(Nc2cc(Nc3ccccc3)[nH]n2)cc1	inactive	
Cc1cc2c(s1)Nc1ccccc1N=C2N1CCN(C)CC1		inactive: -0.303% [at 15.4 µM]
COC(=O)c1c(C)nn(-c2ccc(OC(F)(F)F)cc2)c1-c1snnc1C		inconclusive: -16% [inhibitor] [at 15.4 µM]
O=C(NCC1COc2ccccc2O1)C1(c2ccccc2)CCCC1 (stereo not given)	inconclusive: 50.1 µM [inhibitor, single point]	
CCc1ccc(NC(=S)N(CCCN2CCOCC2)Cc2ccco2)cc1	inactive	
CN(C)S(=O)(=O)c1cccc(NC(=O)COc2cccc(C#N)c2)c1	inconclusive: 28.2 µM [inhibitor, single point]	
COc1cc(OC)c(-n2c(C)cc(C=O)c2C)cc1Cl	inconclusive: 56.2 µM [inhibitor, single point]	

SMILES	Potency	activity change, negative = inhibition
Cc1ccc(S(=O)(=O)Nc2ccccc2C(=O)Nc2nc(-c3ccc(F)cc3)cs2)cc1	inconclusive: 50.1 µM [inhibitor, single point]	
COc1ccc2cc(C(=O)NCCO)sc(=O)c2c1OC	inconclusive: 50.1 µM [inhibitor, single point]	
COc1ccc(CC(=O)NCc2nnc(SCc3ccc([N+](=O)[O-])cc3)n2C)cc1		inconclusive: 11.4% [activator]
CCC(=O)Nc1ccc(S(=O)(=O)Nc2ccccn2)cc1		inconclusive: 17.8% [activator]
COc1ccc(/C=N/NC(=O)CCCOc2ccc(Cl)cc2Cl)cc1	inconclusive: 7.94 µM [inhibitor, single point]	
CCCn1nnc(NC(=S)NC(=O)CC)n1	inconclusive: 50.1 µM [inhibitor, single point]	
COc1ccc2cc(-c3nc4ccccc4n3C)c(=O)oc2c1	inconclusive: 12.6 µM [activator, partial curve]	
O=C(Cc1ccccc1)Nc1ccccc1Oc1ccccc1	inconclusive: 56.2 µM [inhibitor, single point]	
CCOC(=O)C1(CCc2ccccc2)CCN(C(=O)c2occc2C)CC1		inconclusive: -15.1% [inhibitor]
CNC(=O)CN(c1cc(OCCOC)c(Cl)cc1Cl)S(=O)(=O)c1ccccc1	inconclusive: 6.31 µM [inhibitor, single point]	
CC(C)CCN(C(=O)CNC(=O)c1ccco1)C(C(=O)NC1CCCCC1)c1ccco1 (stereo not given)	inconclusive: 56.2 µM [inhibitor, single point]	
COc1cc(/C=N/NC(=O)C2(O)c3ccccc3-c3ccccc32)ccc1O	inactive	
CNC(=O)CC1C(=O)N(C)C(=S)N1NC(=O)c1ccccc1 (stereo not given)	inconclusive: 44.7 µM [inhibitor, partial curve]	
O=S(=O)(NCCC(c1ccc(F)cc1)c1ccco1)c1ccccc1 (stereo not given)	inconclusive: 17.8 µM [inhibitor, partial curve]	
C=CCn1c(SCC(=O)Nc2ccc(-c3nc4ccc(C)cc4s3)cc2)nnc1-c1ccccc1	inconclusive: 28.2 µM [activator, partial curve]	
COCCN(C(=O)c1ccco1)c1nnc(-c2ccc(OC)cc2)s1	inconclusive: 0.178 µM [inhibitor, full curve]	
Cc1ccccc1Nc1cc(C(=O)NCc2ccco2)c2ccccc2n1	inconclusive: 44.7 µM [inhibitor, partial curve, poor fit]	
Cc1ccc(C(=O)Nc2ccc3c(c2)OCO3)o1	inactive	
N#C/C(=C(/O)CSc1ncn[nH]1)c1nc2ccccc2[nH]1	inconclusive: 11.2 µM [inhibitor, single point]	
CCC(C)(C)n1nnnc1C(c1cc2cc(C)cc(C)c2[nH]c1=O)N1CCN(C(=O)c2ccco2)CC1 (stereo not given)	inactive	
Cc1ccc(S(=O)(=O)N2CCN(C(=O)COc3ccc(NC(=O)c4ccco4)cc3)CC2)cc1	inconclusive: 5.62 µM [inhibitor, full curve]	
